Binding data for eight molecules are collected here from paper PMC10406836.

Sequences of proteins named here, by UniProt entry; tags and fusion partners are left off.
UniProt Q13257: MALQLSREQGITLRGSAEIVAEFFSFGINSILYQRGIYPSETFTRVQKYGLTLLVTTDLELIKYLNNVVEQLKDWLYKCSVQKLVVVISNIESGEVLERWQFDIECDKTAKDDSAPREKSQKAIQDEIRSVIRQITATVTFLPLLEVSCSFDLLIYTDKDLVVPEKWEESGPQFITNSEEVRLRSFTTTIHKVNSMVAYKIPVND

In experiment [1] the target is T1, RNF8 (overexpressed in GSC TS543) (human) (UniProt O76064).
T1 sequence: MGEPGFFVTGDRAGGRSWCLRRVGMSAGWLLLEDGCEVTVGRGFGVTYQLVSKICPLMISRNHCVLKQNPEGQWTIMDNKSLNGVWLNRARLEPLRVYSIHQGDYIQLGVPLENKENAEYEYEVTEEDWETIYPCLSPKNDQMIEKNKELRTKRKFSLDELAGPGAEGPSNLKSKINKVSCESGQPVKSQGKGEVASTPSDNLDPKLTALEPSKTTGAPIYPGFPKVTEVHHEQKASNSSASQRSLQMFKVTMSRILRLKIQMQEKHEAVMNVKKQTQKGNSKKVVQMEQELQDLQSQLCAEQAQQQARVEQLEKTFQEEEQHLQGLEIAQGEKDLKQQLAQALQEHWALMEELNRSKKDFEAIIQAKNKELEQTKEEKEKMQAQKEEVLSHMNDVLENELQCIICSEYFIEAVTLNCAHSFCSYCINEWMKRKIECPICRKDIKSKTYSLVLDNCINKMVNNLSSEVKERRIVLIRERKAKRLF
Description: co-IP; RNF8 IP from RNF8 overexpressing GSC TS543 lysates; Western blot of MAD2.

In experiment [2] the target is T2, myc-tagged RNF8 (human) (UniProt O76064).
T2 sequence: T1 sequence
The experiment is described as follows: co-IP; myc IP from HEK293T lysates overexpressing myc-tagged RNF8 or its mutants; Western blot of endogenous MAD2 or of co-expressed flag-MAD2. On the technique in general: Immunoblotting shows a protein as a band on a membrane.

In experiment [3] the target is T3, myc-tagged *RING (RNF8^C403S) (human) (UniProt O76064).
T3 sequence: T1 sequence with C403S
The experiment is described as above.

Experiment [4] addresses T4, myc-tagged *FHA (RNF8^R42A) (human) (UniProt O76064).
T4 sequence: T1 sequence with R42A
The description is as above.

For experiment [5], the target named is T2, myc-tagged RNF8 (human). Description: condition: only with co-expression of flag-p31^comet; co-IP; myc IP from HEK293T lysates overexpressing RNF8-myc together with flag-p31^comet; Western blot of endogenous MAD2.
The next experiment has as its target T5, myc-BirA*-RNF8 (human) (UniProt O76064).
T5 sequence: T1 sequence
Description: co-IP; myc IP from HEK293T transfected with BirA*-RNF8 or GFP; Western blot of MAD2 and p31^comet.

Experiment [6] addresses T6, p31^comet (human (endogenous in HEK293T)) (UniProt Q15013).
T6 sequence: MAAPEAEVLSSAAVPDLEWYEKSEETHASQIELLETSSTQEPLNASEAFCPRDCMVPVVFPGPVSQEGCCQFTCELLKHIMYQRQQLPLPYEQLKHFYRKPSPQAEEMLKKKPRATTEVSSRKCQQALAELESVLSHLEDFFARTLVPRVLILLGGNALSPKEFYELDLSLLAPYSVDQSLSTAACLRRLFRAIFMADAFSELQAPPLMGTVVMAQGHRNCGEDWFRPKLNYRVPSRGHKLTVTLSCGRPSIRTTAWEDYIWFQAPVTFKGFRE
Description: co-IP; p31^comet IP from HEK293T lysates transfected with different amounts of RNF8-myc plasmid; Western blot of endogenous MAD2.

In the next experiment the target is flag-MAD2 (UniProt Q13257). The experiment is described as follows: co-IP; reverse co-IP: flag IP of flag-tagged MAD2 from cells with myc-tagged RNF8, *FHA or *RING (Supplementary Fig. S2A).
Experiment [7] deals with MAD2 (human (endogenous in HEK293T)) (UniProt Q13257). The experiment is described as follows: co-IP; MAD2 IP from HEK293T lysates, endogenous proteins, with or without 200 ng/ml nocodazole (16 h); Western blot of RNF8.
The target is the same in experiment [8]. The experiment is described as follows: co-IP; myc IP from HEK293T lysates overexpressing RNF8-myc together with flag-p31^comet; Western blot of endogenous MAD2.

Residue numbers refer to the chain shown, from its start. Numbers in names are those of the source. No constants are given. Whether binding was seen depends on the method and setting. In cells and extracts the contact can be indirect. Some entries that bind do so weakly or less than the wild type. For some of these results: Where a sequence is shown, tags or fusion partners need not be part of it.

For “MAD2 (endogenous, GSC TS543) (from UniProt Q13257 1-205)”, the binding entry in [1] is recorded as “binds”.

As to MAD2 (from UniProt Q13257 1-205), the binding result in the experiment with myc-tagged RNF8 (human) [2] was “binds”; in experiment [3] it was “no binding”; in experiment [4], “binds”; with myc-tagged RNF8 (human) [5], “no binding”; with myc-BirA*-RNF8 (human), “binds”; in [6] it was “binds”.

flag-MAD2 (from UniProt Q13257 1-205): the binding entry with myc-tagged RNF8 (human) [2] was “binds”.

B1: myc-tagged RNF8 (protein, UniProt O76064-1 1-485)
chain: T1 sequence
Regarding B1, the binding result with flag-MAD2 is given as “binds”.

B2: myc-tagged *RING (RNF8^C403S) (protein, UniProt O76064-1 1-485)
chain: T1 sequence with C403S
In the case of B2, in the experiment with flag-MAD2, the binding result is given as “no binding”.

B3: myc-tagged *FHA (RNF8^R42A) (protein, UniProt O76064-1 1-485)
chain: T1 sequence with R42A
For B3, the binding entry with flag-MAD2 is recorded as “binds”.

B4: RNF8 (endogenous) (protein, UniProt O76064-1 1-485)
chain: T1 sequence
Turning to B4, the binding result in experiment [7] is given as “binds”.

B5: flag-p31^comet (protein, UniProt Q15013 1-274)
chain: T6 sequence
Take B5: the binding result in experiment [8] is reported as “binds”.
